Source: PubChem BioAssay AID485281 (National Center for Advancing Translational Sciences (NCATS), 2010)
The campaign covered roughly 350,000 compounds. About 260 (0.074%) were called active. Inconclusive means that the source gave no clear call. Such entries were picked first, then a sample of the others. The call rests on the fitted dose curve; in most records, active means well fitted inhibition curve with a large enough effect; inconclusive means small, poorly fitted or top-dose-only effect; inactive means no such curve, though single readings can be large or run the other way. Potencies beside an inconclusive call are fits to weak or partial responses and may not hold up.

Target: Ferritin light chain (Equus caballus) (UniProt P02791)
Test: qHTS Assay for Identification of Novel General Anesthetics; further: nearly all actives have a fitted effect of over 20% in size
Settings: apoferritin/1-aminoanthracene competitive binding, fluorescence; activity change, negative = displacement: at 77.5 µM (top of the series)
How it was run: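 Probe: 1-aminoanthracene (50% saturated, PBS). Protein: horse-spleen apoferritin, 10 uM. Incubation: 10 min, room temperature. Detection: 380 nm excitation, 535 nm emission. Analysis: normalized response, four-parameter Hill.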
On the % scale 0 is the no-effect control and ±100 the full control effect; potency means the concentration at half of the fitted maximal effect; tags describe the fitted curve by direction and shape.

Chain of UniProt P02791 (P02791 whole entry, looked up): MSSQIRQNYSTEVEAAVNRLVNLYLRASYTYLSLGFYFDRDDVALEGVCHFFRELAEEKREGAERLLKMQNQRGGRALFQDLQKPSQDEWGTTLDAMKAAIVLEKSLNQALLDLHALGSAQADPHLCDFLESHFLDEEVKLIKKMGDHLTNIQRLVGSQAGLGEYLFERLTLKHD

SMILES | Potency | activity change, negative = displacement
C/C(=N\Nc1nc2c(s1)CCCC2)c1ccc(Cl)cc1 | inconclusive: 28.2 µM [inhibitor, partial curve] | 
Cc1ccc(C(=O)CC2(O)C(=O)N(Cc3ccccc3)c3ccccc32)c(C)c1 (stereo not drawn) | inconclusive: 12.6 µM [inhibitor, partial curve] | 
Cc1ccccc1Nc1c(-c2ccccn2)nc2ccccn12 | inconclusive: 35.5 µM [inhibitor, single point] | 
Cc1[nH]c2ccccc2c1/C=N/NC(=O)CCC(=O)Nc1ccccc1 | inconclusive: 22.4 µM [inhibitor, partial curve] | 
CC(Cc1cccs1)NC(=O)Nc1ccc([N+](=O)[O-])cc1 (stereo not drawn) | inconclusive: 31.6 µM [inhibitor, partial curve] | 
C/C(=N\NC(N)=S)C1C2C3CC4C5CC(C42)C1C53 (stereo not drawn) | inconclusive: 7.94 µM [inhibitor, partial curve] | 
Cc1ccc(Oc2c(C=O)c3ccccc3n2C)cc1 | inconclusive: 20 µM [inhibitor, partial curve] | 
C=CCn1c(-c2cc(-c3ccc(C)cc3)nc3ccccc23)n[nH]c1=S | inconclusive: 39.8 µM [inhibitor, single point] | 
Oc1ccc(Cl)cc1N=Cc1sc2ccccc2c1Cl | inconclusive: 31.6 µM [inhibitor, partial curve] | 
O=C(CC1Nc2cccc3cccc(c23)NC1=O)Nc1ccc(F)cc1 (stereo not drawn) | inconclusive: 10 µM [inhibitor, partial curve] | 
N#C/C(=C\Nc1ccc2c(c1)OCCO2)c1nc(-c2ccccc2)cs1 |  | inactive: -10.7%
CCN1C(=NCCc2ccc(Br)cc2)N[C@@H](c2ccccc2)[C@H](C(=O)OC)[C@H]1C |  | inactive: -18.7%
CCC/C=C1/CCCOC(C(=O)NCCOC)(C(F)(F)F)C1 (stereo not drawn) |  | inactive: 3.18%
CN(C)CCNC(=O)c1ccc2nc(CCc3ccccc3)oc2c1 | inconclusive: 17.8 µM [inhibitor, partial curve, poor fit] | 
C=CCOC(=O)C(C(C)=O)C(NC(=O)OC)c1ccc2ccccc2c1 (stereo not drawn) |  | inactive: -3.21% [at 15.3 µM]
CC(C)(C)OC(=O)N1CCC(c2c(C(=O)Nc3ccc4c(c3)OCO4)cnn2-c2ccc(F)cc2F)CC1 | inconclusive: 12.6 µM [inhibitor, partial curve] | 
Cn1c(Oc2ccc(F)cc2F)c(C=O)c2ccccc21 | inconclusive: 31.6 µM [inhibitor, partial curve] | 
C=CC(=O)c1ccc2ccccc2c1 | active: 17.8 µM | 
CC1CCN(CC(O)COc2ccc(-c3ccccc3)cc2)CC1 (stereo not drawn) | inconclusive: 28.2 µM [inhibitor, partial curve] | 
CCSc1nc2c([nH]c3ccccc32)c(=O)n1-c1ccc(OC)cc1 |  | inactive: 10.4%
O=C(c1cccc(C(=O)N2CCN(c3ccc(F)cc3)CC2)c1)N1CCN(c2ccc(F)cc2)CC1 | inconclusive: 22.4 µM [inhibitor, partial curve] | 
CCCCCCOc1ccc(/C(C)=N/NC2=NCCN2)cc1 | inconclusive: 25.1 µM [inhibitor, partial curve] | 
COc1ccc(C/C(C)=N/NC(=S)Nc2ccc(C(C)C)cc2)cc1 |  | inactive: -3.64%

SMILES | Potency | activity change, negative = displacement
CCCc1cc(C(=O)NNC(=S)Nc2cccc(C)c2)cs1 | inconclusive: 31.6 µM [inhibitor, partial curve] | 
CCc1ccc(NC(=O)CSC2=Nc3ccccc3C3=NC(CC(=O)NCc4ccc5c(c4)OCO5)C(=O)N23)cc1 (stereo not drawn) | inconclusive: 0.794 µM [inhibitor, full curve, poor fit] | 
COc1ccc(OCc2cc(C(=O)N3CCCC3)no2)c2ccccc12 | inconclusive: 22.4 µM [inhibitor, partial curve] | 
CC1CCCN(C(=O)C(C)Sc2nc(-c3ccccc3)cc(C(F)(F)F)n2)C1 (stereo not drawn) | inconclusive: 17.8 µM [inhibitor, partial curve] | 
CCCC(=O)Nc1nn(CCC)c2nc3ccccc3cc12 |  | inactive: 35.6%
O=C(CSCc1cccc(Cl)c1)N/N=C/c1ccc(OCC(=O)N2CCCCC2)cc1 | inconclusive: 4.47 µM [inhibitor, full curve] | 
CC(=O)C(C(c1ccccc1)c1c[nH]c2ccccc12)[N+](=O)[O-] (stereo not drawn) | inconclusive: 50.1 µM [inhibitor, single point] | 
COc1ccc(-n2c(=O)c3sc4ccccc4c3n(CC(=O)N3CCCC3)c2=O)cc1 |  | inactive: 0.902%
COc1ccc(OCc2nn3c(Cn4cnc5ccccc54)nnc3s2)cc1 | inconclusive: 44.7 µM [inhibitor, single point] | 
O=[N+]([O-])c1ccc(Cn2cc(-c3cccc(C(F)(F)F)c3)nn2)cc1 | inconclusive: 50.1 µM [inhibitor, single point] | 
O=C(Nc1ccc(Cl)cn1)Nc1cccs1 | inconclusive: 25.1 µM [inhibitor, partial curve, poor fit] | 
COc1cccc(NC(=O)c2cc(-c3cccnc3)nc3c(Cl)cccc23)c1 | inconclusive: 17.8 µM [inhibitor, partial curve] | 
Cc1ccccc1NC(=O)c1cccc(N2C(=O)C3CCC(C)CC3C2=O)c1 (stereo not drawn) |  | inactive: -12.2%
CSc1ccc(CN2CCC(CO)(CCOc3ccccc3)CC2)cc1 |  | inactive: -9.74%
CCc1cc(=O)oc2cc(C)c(CN3CCCCC3)c(O)c12 | inconclusive: 35.5 µM [inhibitor, partial curve] | 
CCCCC(CC)CNC(=O)c1ccc2c(c1)OCO2 (stereo not drawn) | inconclusive: 35.5 µM [inhibitor, partial curve] | 
Cc1ccc(/C=C/C2=Cc3c(sc(NC(=O)CSc4n[nH]c(N)n4)c3C#N)C(C)(C)C2)o1 | inconclusive: 22.4 µM [inhibitor, partial curve] | 
O=C(CCl)c1ccc2[nH]c(=O)oc2c1 |  | inactive: -4.04%
O=C(OCc1c(F)cccc1Cl)c1cnc2ccccc2n1 |  | inactive: -15.5%
COc1ccc(/C=C/C(=O)NCc2cn(C)nc2C)cc1COc1ccc(Cl)cc1Br | inconclusive: 39.8 µM [inhibitor, partial curve] | 
O=[N+]([O-])c1nn(-c2ccc3c(c2)OCCO3)n(O)c1=NCc1ccc(F)cc1 |  | inactive: 4.33%
CC(=O)c1cccc(NC(=O)c2noc3c2CC(C)CC3)c1 (stereo not drawn) |  | inactive: 0.816%
CC(=O)c1cccc(NC(=S)NNC(=O)c2ccc(C)c([N+](=O)[O-])c2)c1 | inconclusive: 25.1 µM [inhibitor, partial curve] | 

SMILES | Potency | activity change, negative = displacement
CCC1(C)N=C(c2ccc3c(c2)OCO3)CC(c2ccccc2O)N1 (stereo not drawn) | inconclusive: 5.01 µM [inhibitor, partial curve] | 
O=c1c2ccc([N+](=O)[O-])cc2ncn1CCOc1ccc(Cl)cc1 | inconclusive: 25.1 µM [inhibitor, partial curve] | 
COc1ccc(NC(=O)CN2C(=O)c3cccc4cccc2c34)cc1OC | inconclusive: 89.1 µM [inhibitor, partial curve, poor fit] | 
COc1ccc(CN2CCSCC2)cc1C | inconclusive: 39.8 µM [inhibitor, single point] | 
O[C@@H]1CCN2Cc3ccccc3N=C12 | inconclusive: 35.5 µM [inhibitor, partial curve] | 
CC(C)(C)NC(=O)NC(=O)COC(=O)C1(C)CC1(Cl)Cl (stereo not drawn) | inconclusive: 12.6 µM [inhibitor, partial curve] | 
Cc1ccc(NC(=O)CSc2nnc(C3CCCCC3)n2N)cc1F | inconclusive: 10 µM [inhibitor, full curve] | 
C(=N\Nc1nc(Nc2ccccc2)nc(Nc2ccccc2)n1)/c1cccnc1 |  | inactive: -20.3%
O=C(CN1CCCCC1)Nc1cccc(Oc2ccccc2)c1 | inconclusive: 15.8 µM [inhibitor, partial curve] | 
COc1cccc(C(=O)N2CCC(c3nc4ccccc4s3)CC2)c1 |  | inactive: -11.3%
C=CCc1c(C)nc(C)nc1N/N=C/c1ccc([N+](=O)[O-])cc1 | inconclusive: 20 µM [inhibitor, partial curve, poor fit] | 
Cc1cccc2c1cnn2C(=O)CCC(=O)N1CCC(C)CC1 | inconclusive: 28.2 µM [inhibitor, single point] | 
CC(C)(C)c1ccc(Cn2nnc3c(=O)[nH]c(C4CCCN(C(=O)c5ccco5)C4)nc32)cc1 (stereo not drawn) | inconclusive: 31.6 µM [inhibitor, single point] | 
CC1CCCC(NS(=O)(=O)c2ccc3c(c2)OCCO3)C1C (stereo not drawn) | inconclusive: 12.6 µM [inhibitor, partial curve] | 
CCc1nnc(SCc2nc(-c3ccccc3F)oc2C)c2cc3sccc3n12 |  | inactive: -6.22%
CCOc1ccccc1NC(=O)c1c(NCc2ccc(OC)c(OC)c2OC)sc2c1CCC(C)C2 (stereo not drawn) | inconclusive: 7.94 µM [inhibitor, full curve] | 
CCOC(=O)CC1(C)SC(NC(C)=O)=NN1C(C)=O (stereo not drawn) | inconclusive: 28.2 µM [inhibitor, partial curve] | 
COCCN1C(=O)c2[nH]nc(-c3c(C)cc(C)cc3O)c2C1c1cccc(O)c1 (stereo not drawn) | inconclusive: 56.2 µM [inhibitor, single point] | 
Cc1ccc(NC(=O)CCC(=O)OCC(=O)c2ccc(Oc3ccc([N+](=O)[O-])cc3)cc2)c(C)c1 | inconclusive: 22.4 µM [inhibitor, partial curve] | 
Cc1csc(=Nc2ccccc2)n1Cc1ccco1 | inconclusive: 35.5 µM [inhibitor, single point] | 
CC(C)(C)c1ccc(-n2ncc3c2CCCC3NC(=O)C2=NNC(=O)CC2)cc1 (stereo not drawn) | inconclusive: 35.5 µM [inhibitor, single point] | 
COc1ccccc1NS(=O)(=O)c1ccc(NC(=O)c2nc3nc(C)cc(C(F)F)n3n2)cc1 | inconclusive: 56.2 µM [inhibitor, single point] | 
